# Some of the results follow.
# How the values were obtained:
# Assay in all cases: glycan array binding signal (z-score within array); higher = stronger binding
# Conditions in all cases: glycan notation: IUPAC condensed, linker removed
# [1] = molecular target: GalNAc(b1-4)GlcNAc(b1-2)Man
# How it was run: (§1)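 From the Consortium for Functional Glycomics database, 3228 arrays were curated, keeping only those whose protein sequence was available. Binding is given as a within-array Z-score averaged across arrays sharing a protein sequence and across linkers. Negative Z-scores can be read as non-binding.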
# [2] = molecular target: GalNAc(b1-4)GlcNAc(b1-2)Man(a1-3)[GalNAc(b1-4)GlcNAc(b1-2)Man(a1-6)]Man(b1-4)GlcNAc(b1-4)GlcNAc
# How it was run: as §1
# [3] = molecular target: GalNAc(b1-4)GlcNAc(b1-3)GalNAc(b1-4)GlcNAc
# How it was run: as §1
# GalNAc(b1-4)GlcNAc6S = molecular target: GalNAc(b1-4)GlcNAc6S
# How it was run: as §1
# GalNAc(b1-6)GalNAc = molecular target: GalNAc(b1-6)GalNAc
# How it was run: as §1
# GalNAc3S(b1-4)GlcNAc = molecular target: GalNAc3S(b1-4)GlcNAc
# How it was run: as §1
# GalNAc3S(b1-4)GlcNAc3S = molecular target: GalNAc3S(b1-4)GlcNAc3S
# How it was run: as §1
# [4] = molecular target: GalNAc3S(b1-4)[Fuc(a1-3)]GlcNAc
# How it was run: as §1
# GalNAc4S6S(b1-4)GlcNAc = molecular target: GalNAc4S6S(b1-4)GlcNAc
# How it was run: as §1
# GalNAc6S(b1-4)GlcNAc = molecular target: GalNAc6S(b1-4)GlcNAc
# How it was run: as §1
# Glc(a1-4)Glc = molecular target: Glc(a1-4)Glc
# How it was run: as §1
# [5] = molecular target: Glc(a1-4)Glc(a1-4)Glc(a1-4)Glc
# How it was run: as §1
# Glc(a1-6)Glc(a1-6)Glc = molecular target: Glc(a1-6)Glc(a1-6)Glc
# How it was run: as §1
# [6] = molecular target: Glc(a1-6)Glc(a1-6)Glc(a1-6)Glc
# How it was run: as §1
# Glc(b1-4)Glc = molecular target: Glc(b1-4)Glc
# How it was run: as §1
# Glc(b1-6)Glc = molecular target: Glc(b1-6)Glc
# How it was run: as §1
# GlcA(b1-3)Gal = molecular target: GlcA(b1-3)Gal
# How it was run: as §1
# GlcA(b1-3)GlcNAc = molecular target: GlcA(b1-3)GlcNAc
# How it was run: as §1
# GlcA(b1-6)Gal = molecular target: GlcA(b1-6)Gal
# How it was run: as §1
# [7] = molecular target: GlcA3S(b1-3)Gal(b1-4)GlcNAc(b1-2)Man
# How it was run: as §1
# [8] = molecular target: GlcA3S(b1-3)Gal(b1-4)GlcNAc(b1-3)Gal(b1-4)Glc
# How it was run: as §1
# [9] = molecular target: GlcNAc(a1-3)Gal(b1-4)GlcNAc
# How it was run: as §1
# [10] = molecular target: GlcNAc(a1-4)Gal(b1-3)GlcNAc
# How it was run: as §1
# [11] = molecular target: GlcNAc(a1-4)Gal(b1-4)GalNAc
# How it was run: as §1
# [12] = molecular target: GlcNAc(a1-4)Gal(b1-4)GlcNAc
# How it was run: as §1
# [13] = molecular target: GlcNAc(a1-4)Gal(b1-4)GlcNAc(b1-3)Gal(b1-4)Glc
# How it was run: as §1
# [14] = molecular target: GlcNAc(a1-4)Gal(b1-4)GlcNAc(b1-3)Gal(b1-4)GlcNAc
# How it was run: as §1
# [15] = molecular target: GlcNAc(a1-4)Gal(b1-4)GlcNAc(b1-3)Gal(b1-4)GlcNAc(b1-3)Gal(b1-4)GlcNAc
# How it was run: as §1
# [16] = molecular target: GlcNAc(a1-4)Gal(b1-4)GlcNAc(b1-3)Gal(b1-4)[Fuc(a1-3)]GlcNAc(b1-3)Gal(b1-4)[Fuc(a1-3)]GlcNAc
# How it was run: as §1
# [17] = molecular target: GlcNAc(a1-6)Gal(b1-4)GlcNAc
# How it was run: as §1
# [18] = molecular target: GlcNAc(b1-2)Gal(b1-3)GalNAc
# How it was run: as §1
# [19] = molecular target: GlcNAc(b1-2)Man(a1-3)[GlcNAc(b1-2)Man(a1-6)]Man(b1-4)GlcNAc(b1-4)GlcNAc
# How it was run: as §1
# [20] = molecular target: GlcNAc(b1-2)Man(a1-3)[GlcNAc(b1-2)Man(a1-6)]Man(b1-4)GlcNAc(b1-4)[Fuc(a1-6)]GlcNAc
# How it was run: as §1
# [21] = molecular target: GlcNAc(b1-2)Man(a1-3)[GlcNAc(b1-4)][GlcNAc(b1-2)Man(a1-6)]Man(b1-4)GlcNAc(b1-4)GlcNAc
# How it was run: as §1
# [22] = molecular target: GlcNAc(b1-2)Man(a1-3)[GlcNAc(b1-4)][GlcNAc(b1-2)Man(a1-6)]Man(b1-4)GlcNAc(b1-4)[Fuc(a1-6)]GlcNAc
# How it was run: as §1
# [23] = molecular target: GlcNAc(b1-2)[GlcNAc(b1-4)]Man(a1-3)[GlcNAc(b1-2)Man(a1-6)]Man(b1-4)GlcNAc(b1-4)GlcNAc
# How it was run: as §1
# [24] = molecular target: GlcNAc(b1-2)[GlcNAc(b1-4)]Man(a1-3)[GlcNAc(b1-4)][GlcNAc(b1-2)Man(a1-6)]Man(b1-4)GlcNAc(b1-4)GlcNAc
# How it was run: as §1
# [25] = molecular target: GlcNAc(b1-2)[GlcNAc(b1-4)]Man(a1-3)[GlcNAc(b1-4)][GlcNAc(b1-2)[GlcNAc(b1-6)]Man(a1-6)]Man(b1-4)GlcNAc(b1-4)GlcNAc
# How it was run: as §1
# [26] = molecular target: GlcNAc(b1-2)[GlcNAc(b1-4)]Man(a1-3)[GlcNAc(b1-4)][GlcNAc(b1-2)[GlcNAc(b1-6)]Man(a1-6)]Man(b1-4)GlcNAc(b1-4)[Fuc(a1-6)]GlcNAc
# How it was run: as §1
# [27] = molecular target: GlcNAc(b1-2)[GlcNAc(b1-6)]Man(a1-6)[GlcNAc(b1-2)Man(a1-3)]Man(b1-4)GlcNAc(b1-4)GlcNAc
# How it was run: as §1
# [28] = molecular target: GlcNAc(b1-2)[GlcNAc(b1-6)]Man(a1-6)[GlcNAc(b1-2)Man(a1-3)]Man(b1-4)GlcNAc(b1-4)[Fuc(a1-6)]GlcNAc
# How it was run: as §1
# [29] = molecular target: GlcNAc(b1-2)[GlcNAc(b1-6)]Man(a1-6)[GlcNAc(b1-4)][GlcNAc(b1-2)Man(a1-3)]Man(b1-4)GlcNAc(b1-4)GlcNAc
# How it was run: as §1
# GlcNAc(b1-3)Fuc = molecular target: GlcNAc(b1-3)Fuc
# How it was run: as §1
# GlcNAc(b1-3)Gal = molecular target: GlcNAc(b1-3)Gal
# How it was run: as §1
# [30] = molecular target: GlcNAc(b1-3)Gal(b1-3)GalNAc
# How it was run: as §1
binder,measurement,setting,value
FimA-N3 (Actinomyces oris) (protein) MHHHHHHSSGVDLGTENLYFQSNAGLQGAQFQLYKAKNAYANTCSNEKEGAPIAINGQTTLTTDAQGAIDIKGLFISDSIDGADRDNQVNAMERCYVLVETKAPAGYVLPAGNGAATPVKVKAGEETTDN,glycan array binding signal (z-score),[1],-0.129
same,glycan array binding signal (z-score),[2],0.026
same,glycan array binding signal (z-score),[3],-0.42
same,glycan array binding signal (z-score),GalNAc(b1-4)GlcNAc6S,-0.302
same,glycan array binding signal (z-score),GalNAc(b1-6)GalNAc,2.29
same,glycan array binding signal (z-score),GalNAc3S(b1-4)GlcNAc,-0.182
same,glycan array binding signal (z-score),GalNAc3S(b1-4)GlcNAc3S,-0.198
same,glycan array binding signal (z-score),[4],-0.42
same,glycan array binding signal (z-score),GalNAc4S6S(b1-4)GlcNAc,-0.106
same,glycan array binding signal (z-score),GalNAc6S(b1-4)GlcNAc,1.1
same,glycan array binding signal (z-score),Glc(a1-4)Glc,-0.453
same,glycan array binding signal (z-score),[5],-0.03
same,glycan array binding signal (z-score),Glc(a1-6)Glc(a1-6)Glc,-0.527
same,glycan array binding signal (z-score),[6],-0.494
same,glycan array binding signal (z-score),Glc(b1-4)Glc,-0.091
same,glycan array binding signal (z-score),Glc(b1-6)Glc,0.01
same,glycan array binding signal (z-score),GlcA(b1-3)Gal,-0.096
same,glycan array binding signal (z-score),GlcA(b1-3)GlcNAc,0.079
same,glycan array binding signal (z-score),GlcA(b1-6)Gal,0.264
same,glycan array binding signal (z-score),[7],-0.28
same,glycan array binding signal (z-score),[8],-0.178
same,glycan array binding signal (z-score),[9],0.196
same,glycan array binding signal (z-score),[10],0.148
same,glycan array binding signal (z-score),[11],-0.322
same,glycan array binding signal (z-score),[12],-0.148
same,glycan array binding signal (z-score),[13],0.207
same,glycan array binding signal (z-score),[14],-0.396
same,glycan array binding signal (z-score),[15],-0.21
same,glycan array binding signal (z-score),[16],0.399
same,glycan array binding signal (z-score),[17],-0.298
same,glycan array binding signal (z-score),[18],-0.175
same,glycan array binding signal (z-score),[19],-0.143
same,glycan array binding signal (z-score),[20],0.297
same,glycan array binding signal (z-score),[21],-0.204
same,glycan array binding signal (z-score),[22],-0.202
same,glycan array binding signal (z-score),[23],-0.565
same,glycan array binding signal (z-score),[24],-0.59
same,glycan array binding signal (z-score),[25],-0.605
same,glycan array binding signal (z-score),[26],-0.394
same,glycan array binding signal (z-score),[27],-0.636
same,glycan array binding signal (z-score),[28],-0.252
same,glycan array binding signal (z-score),[29],-0.405
same,glycan array binding signal (z-score),GlcNAc(b1-3)Fuc,3.03
same,glycan array binding signal (z-score),GlcNAc(b1-3)Gal,-0.452
same,glycan array binding signal (z-score),[30],-0.138

# From the supplement of paper PMC8728848
